From the supplement of paper PMC11417369
± gives the standard deviation of the averaged measurements. The list shows a part of the results.

The sequences below were run on PfAP2-EXP AP2 domain (GST-tagged) (assay: gcPBM binding intensity (ln(normalized median fluorescence intensity)); higher = stronger DNA binding).
Outline: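 GST-tagged P. falciparum DNA-binding domains, expressed in E. coli (about 25 μg on average), were applied for 1 h to an Agilent 4 × 180k array of primer-extended double-stranded 36-bp intergenic genomic probes plus negative controls. The binding buffer was 1× PBS with 1% milk, 0.2 mg/ml BSA, 0.5% salmon testes DNA and 0.03% Triton X-100. Bound protein was detected with Alexa488 anti-GST antibody and scanned at 488 nm. Binding intensity is the highest Masliner-normalised natural-log median intensity across replicate spots of either probe orientation.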
With “GAATTAATTTTAAAACGTACATGGGTGTATTTACAC [XGTACX_site5939]” the “gcPBM binding intensity (ln)” value was 8.86 ± 0.3. For “GTTAGGATAGATTAGACATGCACATAAATGCACTTC [TGCATGCA_site561]”, the “gcPBM binding intensity (ln)” value was 8.66 ± 0.028. With “TTTTTATAGAATTTAACACACATTTCATATAAAAAA [CACACA_site7453]” the “gcPBM binding intensity (ln)” value was 8.22 ± 0.28. With “TATATAACATAATATACACACATTATATGCGTAATT [CACACA_site6098]” the “gcPBM binding intensity (ln)” value was 8.21 ± 0.4. With “TTAAAATTCAAAAAAAAAAATCAGAATATCAGAAAA [CACACA_negctrl_site1361]” the “gcPBM binding intensity (ln)” value was 8.3 ± 0.45. For “GATATATAAATAAATACACACATAAAATAGAAATAT [CACACA_site6881]”, the “gcPBM binding intensity (ln)” value was 8.93 ± 0.53. In the case of “ATTAAAGAAATATATACACACATTATGGGGGAATAA [CACACA_site178]”, the “gcPBM binding intensity (ln)” value is reported as 9.47 ± 0.42. “ACATATTAAAATATATGTACATAAAATATGAAAAAA [XGTACX_site5869]” was tested, and the “gcPBM binding intensity (ln)” value was 8.82 ± 0.3. In the case of “ATATTTATTCCTTTTGGTACACAAAAAAAAAAAAAA [XGTACX_site8126]”, the “gcPBM binding intensity (ln)” value is reported as 8.51 ± 0.51. “TTTAAATGCTTTTTGTGGTGACTTATCCTTTCATAA [XGTACX_negctrl_site109]” was tested, and the “gcPBM binding intensity (ln)” value was 8.74 ± 0.46. In the case of “AATTATTTCTTTTACACATGCAATATTTAATTAAAA [TGCATGCA_site598]”, the “gcPBM binding intensity (ln)” value is reported as 8.81 ± 0.31. In the case of “TATATGCTATAATATACACACATACCTATATTTATA [CACACA_site6383]”, the “gcPBM binding intensity (ln)” value is reported as 8.64 ± 0.4. With “AATTTAAGCAGAACATATATATATATATATATAAAG [CACACA_negctrl_site769]” the “gcPBM binding intensity (ln)” value was 8.66 ± 0.32. For “TTATTTGATTACTTGCGTACTTATTTCATATTTTTT [XGTACX_site6648]”, the “gcPBM binding intensity (ln)” value was 8.87 ± 0.36. With GGGATATTTTAAAGGGTGCATATTATTAAAATAATG the “gcPBM binding intensity (ln)” value was 8.97 ± 0.13. With “ATGAGAAAACATAAAAGTACAAAAAGAAAAAAAAAA [XGTACX_site6020]” the “gcPBM binding intensity (ln)” value was 8.57 ± 0.39. “TATTATATTAATGATGGTACAGTGTATATATATAAT [XGTACX_site1286]” was tested, and the “gcPBM binding intensity (ln)” value was 8.9 ± 0.35. For “TTGGGTCAAACATAAACACACACAAAAAGAAAAAAT [CACACA_site8328]”, the “gcPBM binding intensity (ln)” value was 8.85 ± 0.55. For “TCATAGTATGGACACACACACACACCCATATATATA [CACACA_site5033]”, the “gcPBM binding intensity (ln)” value was 8.78 ± 0.3. “TTTCCATATTTTTAAAGTACATATTTCCGTTTCCAC [XGTACX_site7832]” was tested, and the “gcPBM binding intensity (ln)” value was 8.64 ± 0.42. With “ACATATAATATAAAGTGTACAAGAAAATAAAAATAA [XGTACX_site1273]” the “gcPBM binding intensity (ln)” value was 8.77 ± 0.38. “TAATAATAAACAACCACACACAAAAAAACAAAAAAA [CACACA_site3269]” was tested, and the “gcPBM binding intensity (ln)” value was 8.69 ± 0.74. “GTAGCACATATATATTGTACATAATATATACATTAT [XGTACX_site6354]” was tested, and the “gcPBM binding intensity (ln)” value was 8.57 ± 0.16. For “ATTTAATTATGTAAGTGTACTTTGGAATATAATATT [XGTACX_site3186]”, the “gcPBM binding intensity (ln)” value was 8.44 ± 0.41. “GTGTGGTGCTCGAGGAGTACAAACAATATGTAATTT [XGTACX_site4160]” was tested, and the “gcPBM binding intensity (ln)” value was 8.82 ± 0.42. “TAAACAGACATATAAACACACATATAAACAGACATA [CACACA_site7214]” was tested, and the “gcPBM binding intensity (ln)” value was 8.69 ± 0.56. With “TTTATTTTATAATTCACACATATATACCTATTTTAT [CACACA_site5709]” the “gcPBM binding intensity (ln)” value was 8.48 ± 0.36. With “AATATAAGTAATTATACACACTTAATATTTATATAC [CACACA_site7334]” the “gcPBM binding intensity (ln)” value was 8.29 ± 0.48. For “TTTTCTTCCTATTATTGTACATATAGTATTCTTTCA [XGTACX_site4428]”, the “gcPBM binding intensity (ln)” value was 9.2 ± 0.61. In the case of “AATGTAGGTTTATTTACACACAAATATAGATATATA [CACACA_site6825]”, the “gcPBM binding intensity (ln)” value is reported as 8.35 ± 0.36. With “GTGTATTTATGTTATACACACAAAAATATTTTGTAT [CACACA_site4305]” the “gcPBM binding intensity (ln)” value was 8.71 ± 0.23. “ATGTTGCTCATATGAGTGCACGTTTCATTTCAGTTT [GTGCAC_site9865]” was tested, and the “gcPBM binding intensity (ln)” value was 8.92 ± 0.26. In the case of “ATATTTAAAAAAGAGTGTACTCATCTCTTTTAAAAA [XGTACX_site1160]”, the “gcPBM binding intensity (ln)” value is reported as 8 ± 0.26. For AATTTATATAATTTTGTGCACAATATTCATGTATAT, the “gcPBM binding intensity (ln)” value was 8.99 ± 0.22. For “CTATTTCGTATATATAGTACATATTATAACATACTA [XGTACX_site978]”, the “gcPBM binding intensity (ln)” value was 8.71 ± 0.27. With “ACAAAATAAAAACACACACACAAACACAAAAAAATA [CACACA_site3390]” the “gcPBM binding intensity (ln)” value was 8.71 ± 0.57. In the case of “TATATATACAGACACATACACACAAATAAAAAAACA [CACACA_site3413]”, the “gcPBM binding intensity (ln)” value is reported as 8.89 ± 0.56. In the case of “AGAAGGTAAAAACACACACACACATACAAAAAAAAA [CACACA_site3767]”, the “gcPBM binding intensity (ln)” value is reported as 8.76 ± 0.56. “AGCTCTTGTCATTTTGCACACACACCGGTATAGGTT [CACACA_site5654]” was tested, and the “gcPBM binding intensity (ln)” value was 9.12 ± 0.4. For “CCTCCATTAGATACTTGTACATAAAAGTTTTGATTG [XGTACX_site7428]”, the “gcPBM binding intensity (ln)” value was 8.57 ± 0.59. “AGACTTTGTACAAACACACACATGAACACAATATTA [CACACA_site1360]” was tested, and the “gcPBM binding intensity (ln)” value was 8.82 ± 0.5. “AATCATAAAATCATATGTACACATTTTTCCTATGAT [XGTACX_site8799]” was tested, and the “gcPBM binding intensity (ln)” value was 8.78 ± 0.41. In the case of “AAAAAAAAAAAATAATAAATAAATAAAAATAAATGA [CACACA_negctrl_site1623]”, the “gcPBM binding intensity (ln)” value is reported as 8.32 ± 0.65. With “ATTTTATTAATTTGGTGTACTTAATTTATATTTTTC [XGTACX_site4947]” the “gcPBM binding intensity (ln)” value was 8.6 ± 0.34. In the case of “TTATAATAATTTTATGCACACAGAAAAATACAAGGT [CACACA_site9169]”, the “gcPBM binding intensity (ln)” value is reported as 9.04 ± 0.21. For “ATAATATATATATTAACACACATCCTTTTATGTATA [CACACA_site1203]”, the “gcPBM binding intensity (ln)” value was 8.52 ± 0.35. “ATATGTGTGTAGTGTTCAATTATATTGATGTGAAGG [TGCATGCA_negctrl_site462]” was tested, and the “gcPBM binding intensity (ln)” value was 8.76 ± 0.42. For “GAACCGTGCAAATGTTGTACACTTTAAAAATATTCT [XGTACX_site4488]”, the “gcPBM binding intensity (ln)” value was 8.57 ± 0.23. “AAAACGAAAATTTGGAAACCAAAGGAAAAACATAAT [GTGCAC_negctrl_site709]” was tested, and the “gcPBM binding intensity (ln)” value was 8.99 ± 0.51. “TAGGAGCCTAGACACACACACAAAAAAAAAAAAAAA [CACACA_site6911]” was tested, and the “gcPBM binding intensity (ln)” value was 8.1 ± 0.54. With “TACATATAGAAACACACACACATATATATATATATA [CACACA_site1300]” the “gcPBM binding intensity (ln)” value was 10.1 ± 0.38. With “AAAAAGGTTATTGGTACACACATATGTATATATATA [CACACA_site552]” the “gcPBM binding intensity (ln)” value was 9.3 ± 0.057. With “TATACATACTCACCCACACACAAAAAAAAAAAAAAA [CACACA_site862]” the “gcPBM binding intensity (ln)” value was 8.56 ± 0.63. “TATTTAATGTGATACTTATATTATTTTATGATTAAA [GTGCAC_negctrl_site25]” was tested, and the “gcPBM binding intensity (ln)” value was 8.14 ± 0.42. For “TATATAAGAATTTTTACACACATGAAAATGTAGATA [CACACA_site3735]”, the “gcPBM binding intensity (ln)” value was 8.26 ± 0.45. With “ATATTCAATTCATACACACACAATTTAAGAATGATA [CACACA_site3883]” the “gcPBM binding intensity (ln)” value was 8.51 ± 0.56. In the case of “CATATAGATTTGTTCACACACACACTAAAAAAAAAA [CACACA_site7212]”, the “gcPBM binding intensity (ln)” value is reported as 8.46 ± 0.47.
